Experimental data: PMC11995724, “Antibiotic target discovery by integrated phenotypic and activity-based profiling of electrophilic fragments” (Cell chemical biology, 2025)
In all, about 3,200 compounds went through this assay and about 110 (3.4%) showed an effect of 50% or more. The list shows a part of the results.

system: T1, V. cholerae SAD30; parameters: species or system S. aureus MSSA476 (TSB) or V. cholerae SAD30 (LB); 384-well bacterial growth screen at 25 uM, OD600 relative to DMSO control; details: relative growth, OD600, LB; 25 µM; inhibitor
T1 construct: SAD30

| Compound | % of control remaining [%] |
| --- | --- |
| N#Cc1ccc(C(=O)CCl)cc1 [10-F10, 4-(2-chloroacetyl)benzonitrile] | 0 |
| CC(Cl)C(=O)NCCc1ccc(F)cc1 (stereo not drawn) [6-F06, 2-chloro-N-[2-(4-fluorophenyl)ethyl]propanamide] | 86.757 |
| C=CC(=O)NCCC(=O)N1CCSC(C)CC1 (stereo not drawn) [2-K08, N-[3-(7-methyl-1,4-thiazepan-4-yl)-3-oxopropyl]prop-2-enamide] | 87.5712 |
| COc1ccc(C=C(C#N)C(=O)NCc2ccccc2)cc1O [8-C09, N-benzyl-2-cyano-3-(3-hydroxy-4-methoxyphenyl)prop-2-enamide] | 76.4786 |
| C=C(Cl)CN(C(=O)CCl)C1CCc2ccccc21 (stereo not drawn) [7-B18, 2-chloro-N-(2-chloroprop-2-en-1-yl)-N-(2,3-dihydro-1H-inden-1-yl)acetamide] | 83.0002 |
| COc1ccc(NC(=O)C(C#N)=Cc2cccc(O)c2)cc1OC [8-F09, 2-cyano-N-(3,4-dimethoxyphenyl)-3-(3-hydroxyphenyl)prop-2-enamide] | 76.2067 |
| C=CC(=O)N1CCc2[nH]cnc2C1c1ccnn1C (stereo not drawn) [3-A07, 1-[4-(1-methyl-1H-pyrazol-5-yl)-1H,4H,5H,6H,7H-imidazo[4,5-c]pyridin-5-yl]prop-2-en-1-one] | 120.32 |
| Cc1ccccc1NC(=O)C(C#N)=Cc1ccc2c(c1)OCCO2 [8-J03, 2-cyano-3-(2,3-dihydro-1,4-benzodioxin-6-yl)-N-(2-methylphenyl)prop-2-enamide] | 92.1142 |
| N#CC(=Cc1ccc(Cl)cc1)C(=O)Nc1ccncc1 [8-K20, 3-(4-chlorophenyl)-2-cyano-N-(pyridin-4-yl)prop-2-enamide] | 74.4392 |
| C=CC(=O)N1CCCC1c1cc(C)no1 (stereo not drawn) [3-G12, 1-[2-(3-methyl-1,2-oxazol-5-yl)pyrrolidin-1-yl]prop-2-en-1-one] | 90.8546 |
| CC(C)Oc1ccccc1C=C(C#N)C(=O)Nc1cccc(Cl)c1 [9-P20, N-(3-chlorophenyl)-2-cyano-3-[2-(propan-2-yloxy)phenyl]prop-2-enamide] | 84.0925 |
| O=C(CCl)N1CC(Cc2ccc(F)cc2F)C1 [5-G20, 2-chloro-1-{3-[(2,4-difluorophenyl)methyl]azetidin-1-yl}ethan-1-one] | 89.2718 |
| CN(CCNC(=O)CCl)S(=O)(=O)c1cccs1 [6-H11, 2-chloro-N-[2-(N-methylthiophene-2-sulfonamido)ethyl]acetamide] | 70.3763 |
| COc1ccc(S(=O)(=O)N(C)C)cc1NC(=O)CCl [4-E05, 2-chloro-N-[5-(dimethylsulfamoyl)-2-methoxyphenyl]acetamide] | 103.86 |
| CC(C)N1C(=O)C[C@H](NC(=O)CCl)[C@H]1c1ccc(Cl)c(F)c1 (racemic) [5-I11, rac-2-chloro-N-[(2R,3S)-2-(4-chloro-3-fluorophenyl)-5-oxo-1-(propan-2-yl)pyrrolidin-3-yl]acetamide] | 97.3416 |
| C=CC(=O)N1CCC(C(=O)N2CCc3ccccc32)CC1 [1-E09, 1-[4-(2,3-dihydro-1H-indole-1-carbonyl)piperidin-1-yl]prop-2-en-1-one] | 92.5262 |
| C=CC(=O)NC(c1ccccc1)C1CCC1 (stereo not drawn) [1-G05, N-[cyclobutyl(phenyl)methyl]prop-2-enamide] | 93.8714 |
| CC(Cl)C(=O)NC1CC=CCC1 (stereo not drawn) [6-K21, 2-chloro-N-(cyclohex-3-en-1-yl)propanamide] | 96.7675 |
| CC(Cl)C(=O)N1C2CCC1CC1(C2)CC1(F)F (stereo not drawn) [6-N18, 2-chloro-1-{2',2'-difluoro-8-azaspiro[bicyclo[3.2.1]octane-3,1'-cyclopropan]-8-yl}propan-1-one] | 87.6671 |
| N#CCCN(C(=O)CCl)c1cccc(Cl)c1 [6-A17, 2-chloro-N-(3-chlorophenyl)-N-(2-cyanoethyl)acetamide] | 105.261 |
| C=CC(=O)NCCC(=O)N1CCN(c2ccc(C#N)cc2F)CC1 [3-D07, N-{3-[4-(4-cyano-2-fluorophenyl)piperazin-1-yl]-3-oxopropyl}prop-2-enamide] | 101.617 |
| C=CC(=O)Nc1nn(CC(C)C)cc1Cl [2-G05, N-[4-chloro-1-(2-methylpropyl)-1H-pyrazol-3-yl]prop-2-enamide] | 93.9014 |
| C=CC(=O)NC1(c2cccc(F)c2)CCOCC1 [1-M04, N-[4-(3-fluorophenyl)oxan-4-yl]prop-2-enamide] | 90.8819 |

| Compound | % of control remaining [%] |
| --- | --- |
| COc1cc(C=C(C#N)C(=O)NC(C)C)cc(Cl)c1O [9-K11, 3-(3-chloro-4-hydroxy-5-methoxyphenyl)-2-cyano-N-(propan-2-yl)prop-2-enamide] | 86.8117 |
| O=C(CCl)N(Cc1ccnn1C1CCC1)C1CC=CCC1 (stereo not drawn) [5-I14, 2-chloro-N-[(1-cyclobutyl-1H-pyrazol-5-yl)methyl]-N-(cyclohex-3-en-1-yl)acetamide] | 95.3242 |
| Cc1ccc(Sc2ccc(NC(=O)CCl)cc2)cc1C [4-G03, 2-chloro-N-{4-[(3,4-dimethylphenyl)sulfanyl]phenyl}acetamide] | 107.311 |
| Cc1c(C#N)c(NC(=O)CCl)n(Cc2ccccc2)c1C [4-M21, N-(1-benzyl-3-cyano-4,5-dimethyl-1H-pyrrol-2-yl)-2-chloroacetamide] | 99.8922 |
| COc1ccc(C=C(C#N)C(=O)Nc2cccc3ccccc23)cc1 [9-E10, 2-cyano-3-(4-methoxyphenyl)-N-(naphthalen-1-yl)prop-2-enamide] | 86.1319 |
| Cc1ccc(C)n1C1CCC(NC(=O)CCl)CC1 (stereo not drawn) [7-F18, 2-chloro-N-[4-(2,5-dimethyl-1H-pyrrol-1-yl)cyclohexyl]acetamide] | 79.1674 |
| C=CC(=O)NCCC(=O)N1CCCC1c1cn(C)nc1C (stereo not drawn) [3-E10, N-{3-[2-(1,3-dimethyl-1H-pyrazol-4-yl)pyrrolidin-1-yl]-3-oxopropyl}prop-2-enamide] | 102.323 |
| C=CC(=O)N(Cc1ccc(Cl)o1)C1CCCC12CCOCC2 (stereo not drawn) [2-K05, N-[(5-chlorofuran-2-yl)methyl]-N-{8-oxaspiro[4.5]decan-1-yl}prop-2-enamide] | 95.1365 |
| CN(C(=O)CCl)C1CCCCC1 [5-N07, 2-chloro-N-cyclohexyl-N-methylacetamide] | 100.368 |
| Cc1ccc(N(C(=O)CCl)C2C=CS(=O)(=O)C2)cc1 (stereo not drawn) [5-K13, 2-chloro-N-(1,1-dioxo-2,3-dihydro-1lambda6-thiophen-3-yl)-N-(4-methylphenyl)acetamide] | 94.6517 |
| Cc1ccnc(-c2n[nH]c(C(C)NC(=O)C(C)Cl)n2)c1 (stereo not drawn) [7-I10, 2-chloro-N-{1-[3-(4-methylpyridin-2-yl)-1H-1,2,4-triazol-5-yl]ethyl}propanamide] | 80.0925 |
| O=C(CCl)N1N=C(c2ccc(Cl)cc2)CC1c1ccco1 (stereo not drawn) [5-L04, 2-chloro-1-[3-(4-chlorophenyl)-5-(furan-2-yl)-4,5-dihydro-1H-pyrazol-1-yl]ethan-1-one] | 105.748 |
| O=C(Nc1cccc(-c2nnco2)c1)N1CCSSCC1 [10-P09, N-[3-(1,3,4-oxadiazol-2-yl)phenyl]-1,2,5-dithiazepane-5-carboxamide] | 101.149 |
| C=CC(=O)Nc1cnn2cc(C)cnc12 [1-G19, N-{6-methylpyrazolo[1,5-a]pyrimidin-3-yl}prop-2-enamide] | 89.0882 |
| C=CC(=O)NCCC(=O)N1CCCN(c2cccnn2)CC1 [2-P16, N-{3-oxo-3-[4-(pyridazin-3-yl)-1,4-diazepan-1-yl]propyl}prop-2-enamide] | 95.7541 |
| C=CC(=O)N(Cc1cnc(C2CC2)o1)C1CCCCC1C (stereo not drawn) [1-D15, N-[(2-cyclopropyl-1,3-oxazol-5-yl)methyl]-N-(2-methylcyclohexyl)prop-2-enamide] | 85.3513 |
| CN1C(=O)[C@H](NC(=O)CCl)COc2ccccc21 [7-D04, 2-chloro-N-[(3R)-5-methyl-4-oxo-2,3,4,5-tetrahydro-1,5-benzoxazepin-3-yl]acetamide] | 93.1769 |
| C=CC(=O)N(Cc1ccc2cnn(C)c2c1)CC(C)(C)C [2-O05, N-(2,2-dimethylpropyl)-N-[(1-methyl-1H-indazol-6-yl)methyl]prop-2-enamide] | 100.077 |
| CC(NC(=O)C(C#N)=Cc1ccccc1F)c1ccccc1 (stereo not drawn) [8-P16, 2-cyano-3-(2-fluorophenyl)-N-(1-phenylethyl)prop-2-enamide] | 78.1101 |
| C=CCN(Cc1ccc(Cl)s1)C(=O)CCl [5-M05, 2-chloro-N-[(5-chlorothiophen-2-yl)methyl]-N-(prop-2-en-1-yl)acetamide] | 90.1124 |
| CC(Cl)C(=O)Nc1nc2ccccc2s1 (stereo not drawn) [5-K05, N-(1,3-benzothiazol-2-yl)-2-chloropropanamide] | 101.04 |
| CC(Cl)C(=O)NCC1COc2ccccc2O1 (stereo not drawn) [4-F13, 2-chloro-N-[(2,3-dihydro-1,4-benzodioxin-2-yl)methyl]propanamide] | 97.8219 |
